First the molecules themselves.
B1: LC3A_127_191 (protein)
chain: NLLEEAERGLREAQELLRKLQRGEISLEEAEKRAEELLKRLERIAEELADNEVLKEMVEDARELLERAKKAPPEEQKPLLEELFSELALAFALAAVKLEE
B2: LC3A_59_2025 (protein)
chain: SAEIKALVDAAIAAKDDIDAMAKTILEGLEAVKDDPEKLKELKELLVEGLVKAGLLSEELAKEMVDDIVEAFEKLKNREDQLKAIKEIITTYLNEEEIEE
B3: LC3A_3_1640 (protein)
chain: MEEKVEEAAKRLKEAGHSEEVIEAFRETAELLMKRGYEEALKTLIEEMEKLIDLPDEILLDFLNDVKNYVLTHDDNEEEVIKFIKEEARIARNESEIIEL
B4: LC3A_28_721 (protein)
chain: GSLEENLEKALKEAKEAAEKGEEVVIEIKVPGDATEEDIEKVMKALEEIAEITKDLKSTAIIIDVDGGVKQEHIDKLADKAEEIEKKYPNVTVIIALDEE
B5: LC3A_3_1903 (protein)
chain: MEKLREELLKALKEAGASEETIEAAKEALDLIASRGLEKVAEEFVKAVKELLKESVEKAEEFIKRMLEFVKSFKGSDEEFEKALLEEIRTLKNEALIEEL
B6: LC3A_free_0_2114 (protein)
chain: MTTVVEVVVISKEPVSEEKVEKLEEFARELAEEISEKYGAETEVEVAEVDGRVVFTLTIKKEGMSIDEALEIADEVSDRLEEKAKELGVEVTIYESVYEE
B7: LC3A_132_321 (protein)
chain: SEKLYEELKEKITELLEEAEKNIDNLEKVEELVKEIRELAKEAKEKLSPEQVAELFDEAAEKADEVSLKALEAGKEDVSLLLDGLAVELAAESIRAEEEI
B8: LC3A_28_965 (protein)
chain: SALEEQLEKVLEEAKKAAKEGKPKVFVIEVPGDADEEDIEKVIKTIKEIAELLKDVKGSAIIVEVDAGVKQEHIDKLADTLEEIEKKYPNITAILALDED
B9: LC3A_3_1782 (protein)
chain: MEEKVEELLKELEEAGKSEETIEAVREALELLIERGYEEALETFVEETRELLDLPDEILLDFALEVLNLIKNEDLSEEELTKRIKELARLAKLEGEIEEL
B10: LC3A_28_803 (protein)
chain: SKTRESADAALAEARAQIAAGEEVFVTITIEEDATEEDVRYVAETIREIARLAKEAGIPRVYVTVDSPANEEHITIIDETEEELQAEGLPVTVVIAIEDE
B11: LC3A_28_660 (protein)
chain: SATREAADAAIAAARAAAARGEPAVITLTVTGDATPEDIDYVLAALEEIAAILAPIPGSAIVIDLEAGVDPEHRQRIIDKAEELEKRYPNVTVIIAEEEE
B12: LC3A_free_26_2167 (protein)
chain: DDFLDIAALDKALENLEEALKLAEKNKNVSEELKALLKKALENAKKGTLESFEQAIKDLEAAIKLVKENKKIPEEDKEKLLKLLEEALANLKENAEILKS
B13: LC3A_28_689 (protein)
chain: NYIEELKKKAEEILEEAAAKGEEAYIEIDFERPITPEEVEEIMDKLEEYIKKYKLKKVNIVINILSENQSQETIDTIMDKAEELEKRIPNVTVIIALPEN
B14: LC3A_28_1105 (protein)
chain: SEVDKENEAAIAEAKAAAAAGEPAVITLTVKATDTQEDIEKKLETLEEIAEILKDLPGSAIIVDLDGKIPQEAIDKIADRGEEIEEKYPNVTVIIALDEE
B15: LC3A_3_1778 (protein)
chain: ADELIEELLEALREAGKSEETIEAAREVAERLRERGFDEALETFVREMRRLLDVPDDILLDMLEEVLELLETEDLSEEEVIERIEELARLARAEAEIEEL
B16: LC3A_28_648 (protein)
chain: MTIEEQIEEALRKAREAREKGEPAVITLTVDGKATEEDIDRIIETMEEIARILDSIPGSAIIIDVTGGVKQEYIDRLAEKAEEIEKKYPNVTVIIALDED
B17: LC3A_free_0_2113 (protein)
chain: MVTVVEVVAISKEPVSEEKVAKLEAFAKALAAELSEKYGAETEVTVSTVDGRTVLTITLRKEGMSIDEGLEIADEVSDRLEAKFKELGVEVTIFESVYEE
B18: LC3A_28_991 (protein)
chain: SELKARADAVLKEVKEAAAKGEAKVFVIKVPSTATDEDIDYVVEAIKEMAEILKDVPGAAIIVDLESGVKQEHIDKIADAMDEAEEKNPNLAAIIALDED
B19: LC3A_3_1407 (protein)
chain: FEEIREETLELLREYGASEEVLEAAEEVLDALEEKGYEKAAETLLEELKELEDLSDELLLALLEDVLEFVTTEDASEEEVVEFIKEEATIAKNENEIEEL
B20: LC3A_45_1953 (protein)
chain: MYVAEVSVLVPEEEFEKAVAVLRETSARIREERGLEVEIDEEALKKAREEAKKEGEALVTVTVKSEDKDEALDAAVEIQDALEKAMSPKVASIISIKEEP
B21: LC3A_45_1951 (protein)
chain: MYRATVDVLVPREDFEAALAVLREKAKELSEKKGVKVEIDEEAVAAAREEAEREGEGLITVDVYHEDKQVALDAAVEIADRLEAELSPRVAVIISVEEVP
B22: LC3A_28_1149 (protein)
chain: SAMVEAAKAQIEADAEKDKDEKEVYLNVTLKKGMTVEEAAEVMDHLEEVVEKLKDKEKIYVVVDFEEPVSQEVLDLVLERADEIEEKFPNVSVIVALHED
B23: LC3A_3_1500 (protein)
chain: LEEAVERLLEALREAGVSEADIAEARELLEKAREYLTEESIEAITETVRRLAHLPPRLVAAAVLTLLETILEKKLNDEEVKEKAELLAETAESFAESDER
B24: LC3A_28_1262 (protein)
chain: NELEENLKKALEEAKKAVERGEEALITIKVPANVTEEEVKKIIETLEEIAELTKSLPKVTVIIDIERGVKQEHIDKLLDKAEELEKKYPNLTIIFALEEE
B25: LC3A_28_1096 (protein)
chain: SPLHEQLEAALAAVREAAAAGEPVTVTITVTDEATEEDLEYLEAALEEMAEIAAGLPSLSVIINLTGEKQQEFATRIGAFADELEARYPNLTVIIALDED
B26: LC3A_127_181 (protein)
chain: EKKEEVLKLAEKIVELARKMSDPDTSLEERKELAKEIIKLFKEIAKLEPEVKEDAEEAIELAETVLARYEAGEELDDVLEMLISGIEILAILIILKIEEK
B27: LC3A_3_1358 (protein)
chain: MEELVEETLKYLREAGKSEETIEAVRKAAEALIEKGYEEALKTFLELMKELKDLPDELLLAFAEDVLKAVTEEDLSEEELIEFIKEEARIARNEAEIIEL
B28: LC3A_free_26_2146 (protein)
chain: SDYIDLADIDEAIDNVEKALKLLKELGNKNEKLIKLLEEALKNLKKETLESLEKALKNLEEALKLVKEDKSIPEEAKKKLIELLTKAIENVKKNIEIMKS
B29: LC3A_28_1201 (protein)
chain: SRTLKSLEEALKKAEEALKKGEEAVITVTVDGDITEEELERVLEGLERIAEIAAKSKKISIIIDLVGGVPEEFQNRIIKKAEELEKKYPNVNIIIALEEE

Whole data set: some 2,300 sequences, median “median log2 fold change of GCK-ALFA target abundance (FLAG IP / Myc IP barcode read proportion)” near 0.095, cut for the lowest 2% near -0.47. This is one part of the list.

The test deals with MAP1LC3A, Q9H492. In words: median log2 fold change of GCK-ALFA target abundance (FLAG IP / Myc IP barcode read proportion) (log2 ratio); each designed protein is fused to an ALFA-tag nanobody in HEK293 cells to bring the named protein to FLAG-tagged glucokinase (GCK); Myc marks an untargeted standard; higher = target protein stabilised (more abundant). To be noted: target protein: 3xFLAG-MCP-GCK-ALFA reporter; HEK293 landing pad (RPLP). The method, boiled down: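 The readout is target abundance, the per-binder median log2 ratio of FLAG to Myc barcode read proportions. It came from HEK293 landing-pad cells carrying a recombined ALFA-nanobody-fused binder library, induced with 2 μg mL^−1 doxycycline and transfected with a plasmid for a FLAG-tagged target and a Myc-tagged standard. After 48 h, lysates were immunoprecipitated with anti-FLAG and anti-Myc, and circular RNA barcodes were reverse transcribed, amplified and sequenced. Each barcode needed a proportion of at least 10^−7 in both replicates and each binder at least 3 barcodes per replicate, a pseudocount of 10^−6 was added, and the replicates were pooled.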
As to B1, the “median log2 fold change” value is 0.011.
B2: the “median log2 fold change” value came out at 0.394.
For the molecule B3, the “median log2 fold change” value stood at 0.236.
Regarding B4, the “median log2 fold change” value was 0.113.
Regarding B5, the “median log2 fold change” value is 0.406.
Then B6, with -0.128; and B7, with 0.224.
Turning to B8, the “median log2 fold change” value was determined as 0.214.
Turning to B9, the “median log2 fold change” value was found to be 0.226.
With B10 the figure was -0.0277; with B11, 0.104.
With B12 the figure was 0.341; with B13, -0.0908; with B14, 0.00201.
Regarding B15, the “median log2 fold change” value was -0.0575.
As for B16, the “median log2 fold change” value amounted to 0.104.
For the molecule B17, the “median log2 fold change” value was -0.105.
Then B18, with -0.141.
Then B19, with -0.422; and B20, with -0.1.
On to B21, for which the “median log2 fold change” value was -0.428.
With B22 the figure was -0.188; with B23, 0.0772; with B24, 0.00327.
Then B25, with 0.0299.
For B26, the “median log2 fold change” value is 0.0177.
Regarding B27, the “median log2 fold change” value turned out to be 0.308.
With B28 the figure was 0.259; with B29, -0.246.
